Data as given in PubChem BioAssay (NCATS).
Inconclusive means that the source gave no clear call. Such entries were picked first, then a sample of the others. For some of these results: Potencies of inconclusive entries are doubtful fits and often do not repeat. Calls of active or inactive are those of the source. Unless noted, calls follow the shape of the dose curve; as a rule, active = well fitted curve in the direction sought with a large enough effect; inconclusive = small, poorly fitted or top-dose-only effect, or another doubt; inactive = no such curve, though single readings can be large; an effect the other way counts as inactive or inconclusive. Bridge positions count the residues as written; N and C are the ends. Square brackets hold non-standard residues; d marks the D form. Peptide text beside a SMILES is read from it. hArg = N=C(N)NCCCC[C@H](N)C(=O)O; Mpa = O=C(O)CCS

Experiments:
[1] = tested on: Zika virus NS2B-NS3 protease (linked construct); experiment: Primary screen NINDS Rhodamine qHTS for Zika virus inhibitors (AID 1347160); settings: activity change, negative = inhibition: at 57.1 µM (top of the series) unless noted; also: potency is read from the fitted curve at half-maximal effect; nearly all actives have a fitted effect of over 55% in size
How it was run: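 Aprotinin served as in-plate control. Conditions: 25 nM linked NS2B-NS3, pH 8.0 Tris buffer, titrated compounds, 15 min preincubation and 15 min reaction with 1.5 microM Rhod110 substrate at room temperature.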

JEG-3 = experiment: Primary qHTS to identify gynecologic anti-cancer compounds using libraries of approved drugs and bioactive compounds (AID 1345084); settings: Gynecologic cancer cell panel viability, ATPlite luminescence, 48 h; series mostly up to 57.5 µM; also: nearly all actives have a fitted effect of over 55% in size; also: potency is read from the fitted curve at half-maximal effect
How it was run: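 Five-point cytotoxicity, 48 h drug exposure at 37 C, 5% CO2, on cells seeded 16 h beforehand. ATP content read by ATPlite luminescence.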

[2] = qHTS of pediatric cancer cell lines to identify multiple opportunities for drug repurposing: Primary screen for A673 cells (AID 1347092); settings: A673 Ewing sarcoma viability, CellTiter-Glo ATP luminescence, 48 h; activity change, negative = cytotoxic: at 46 µM (top of the series); also: potency is read from the fitted curve at half-maximal effect; nearly all actives have a fitted effect of over 45% in size
How it was run: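 Titration-based qHTS on A673 cells: MIPE compounds spanned 11 points (0.78 nM to 46 µM final), NPC compounds 8 points (0.59 nM to 46 µM final). Viability after 48 h was measured by ATP luminescence.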

[3] = qHTS of pediatric cancer cell lines to identify multiple opportunities for drug repurposing: Primary screen for SK-N-MC cells (AID 1347093); settings: SK-N-MC viability, CellTiter-Glo luminescence, 48 h; activity change, negative = cytotoxic: at 46 µM (top of the series); also: potency is read from the fitted curve at half-maximal effect;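 as to activity change, negative = cytotoxic: plate controls were DMSO neutral control for no effect and bortezomib for full effect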
How it was run: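 Metabolically active cells were quantified by ATP-dependent luminescence (CellTiter-Glo, 15 min at room temperature) following 48 h treatment. Cells had been plated at 500-1,000 per well and settled for 5 h beforehand.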

[4] = qHTS of pediatric cancer cell lines to identify multiple opportunities for drug repurposing: Primary screen for BT-37 cells (AID 1347094); also: potency is read from the fitted curve at half-maximal effect
How it was run: (§1)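 Cells plated at 500-1,000/well in growth medium, compounds added after 5 h. MIPE tested at 11 points (from 0.78 nM), NPC at 8 points (from 0.59 nM). CellTiter-Glo luminescence after 48 h; concentration-response curves from primary screen.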

[5] = qHTS of pediatric cancer cell lines to identify multiple opportunities for drug repurposing: Primary screen for SK-N-SH cells (AID 1347098); also: potency is read from the fitted curve at half-maximal effect; nearly all actives have a fitted effect of over 65% in size
How it was run: (§2)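 Cells (500-1,000/well) rested 5 h, then received compounds for 48 h; metabolically active cells were measured by CellTiter-Glo luminescence. Final concentrations spanned up to 46 µM (MIPE, 11-point) or 0.59 nM-46 µM (NPC, 8-point) in primary screens, 11-point in follow-ups.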

[6] = qHTS of pediatric cancer cell lines to identify multiple opportunities for drug repurposing: Primary screen for BT-12 cells (AID 1347101); also: potency is read from the fitted curve at half-maximal effect; nearly all actives have a fitted effect of over 25% in size
How it was run: as §2

[7] = qHTS of pediatric cancer cell lines to identify multiple opportunities for drug repurposing: Primary screen for Rh18 cells (AID 1347102); also: nearly all actives have a fitted effect of over 65% in size; also: potency is read from the fitted curve at half-maximal effect; as to activity change, negative = cytotoxic: % is scaled to controls: 0 for no effect and ±100 for the full control effect
How it was run: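 Viability after 48 h compound treatment at 37C, 500-1,000 cells/well, read as ATP luminescence with CellTiter-Glo. Primary screens used 11-point (MIPE, 0.78 nM-46 µM) or 8-point (NPC, 0.59 nM-46 µM) final concentrations; follow-up screens used 11-point dilutions.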

[8] = qHTS of pediatric cancer cell lines to identify multiple opportunities for drug repurposing: Primary screen for RD cells (AID 1347104); settings: RD rhabdomyosarcoma viability, CellTiter-Glo luminescence, 48 h; activity change, negative = cytotoxic: at 46 µM (top of the series); also: nearly all actives have a fitted effect of over 55% in size; also: potency is read from the fitted curve at half-maximal effect;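 as to activity change, negative = cytotoxic: plate controls were DMSO for no effect and bortezomib for full effect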
How it was run: as §1

[9] = qHTS of pediatric cancer cell lines to identify multiple opportunities for drug repurposing: Primary screen for Rh41 cells (AID 1347108); also: nearly all actives have a fitted effect of over 70% in size; also: potency is read from the fitted curve at half-maximal effect;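 as to activity change, negative = cytotoxic: luminescence drop marks cytotoxic hits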
How it was run: as §1

[10] = A High-Content qHTS Against Drug Library for the Identification of Small Molecules that Inhibit DYT1 Early Onset Primary Dystonia-Associated Cell Pathology (AID 1645839; calls by dose curve; also: potency is read from the fitted curve at half-maximal effect)
How it was run: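 Cells were seeded and left for 24 h, then dosed with compound alongside tetracycline induction of mutant EGFP-TorsinA. They were incubated for 48 h, fixed in 4% paraformaldehyde, permeabilized and imaged for mislocalization (%pathology) and cell count.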

[11] = Drug repurposing screens with cells derived from glioblastoma tumor samples (AID 1345199); settings: GBM patient neurospheres viability, ATP luminescence, 48 h; Potency: tumour line A unless noted; activity, negative = cell killing: at 46 µM (top of the series), tumour line A unless noted; also: potency is read from the fitted curve at half-maximal effect; nearly all actives have a fitted effect of over 40% in size
How it was run: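 Primary testing used CD133+ neurospheres from four GBM patients, seven concentrations, 48 h exposure and ATP-based viability; confirmation added three slower-growing patient lines.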

MKL-2 = experiment: qHTS assay to identify novel small-molecules to repurpose for Merkel cell carcinoma treatment (AID 1296009); settings: MCC and control cell lines, CellTiter-Glo viability, 72 h; activity change, negative = cytotoxicity: at 46 µM (top of the series); also: nearly all actives have a fitted effect of over 60% in size; also: potency is read from the fitted curve at half-maximal effect; as to activity change, negative = cytotoxicity: % is scaled to controls: 0 for no effect and ±100 for the full control effect
How it was run: (§3)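 Dose-response viability screen; 72 hr exposure at 37 degree celsius; CellTiter-Glo added, 10 min room temperature, luminescence read; RLUs scaled between no-cell and DMSO wells.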

WaGa = experiment: as above; settings: MCC and control cell lines, CellTiter-Glo viability, 72 h; series mostly up to 46 µM
How it was run: as §3

[12] = qHTS of pediatric cancer cell lines to identify multiple opportunities for drug repurposing: Primary screen for Saos-2 cells (AID 1347097); also: nearly all actives have a fitted effect of over 40% in size; also: potency is read from the fitted curve at half-maximal effect; as to activity change, negative = cytotoxic: % is scaled to controls: 0 for no effect and ±100 for the full control effect
How it was run: as §1

[13] = qHTS of pediatric cancer cell lines to identify multiple opportunities for drug repurposing: Primary screen for OHS-50 cells (AID 1347103); also: nearly all actives have a fitted effect of over 40% in size; also: potency is read from the fitted curve at half-maximal effect;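 as to activity change, negative = cytotoxic: plate controls were DMSO neutral control for no effect and bortezomib positive control for full effect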
How it was run: as §2

MKL-1 = experiment: qHTS assay to identify novel small-molecules to repurpose for Merkel cell carcinoma treatment (AID 1296009); settings: MCC and control cell lines, CellTiter-Glo viability, 72 h; activity change, negative = cytotoxicity: at 46 µM (top of the series); also: nearly all actives have a fitted effect of over 60% in size; also: potency is read from the fitted curve at half-maximal effect; as to activity change, negative = cytotoxicity: % is scaled to controls: 0 for no effect and ±100 for the full control effect
How it was run: as §3

[14] = target: Phospholipid hydroperoxide glutathione peroxidase GPX4 (Homo sapiens) (UniProt P36969); experiment: Primary qHTS Assay for Inhibitors of Recombinant Selenoprotein Glutathione Peroxidase 4 (GPX4) (AID 1845192); also: nearly all actives have a fitted effect of over 65% in size; also: potency is read from the fitted curve at half-maximal effect
UniProt P36969, sequence (P36969 whole entry, looked up): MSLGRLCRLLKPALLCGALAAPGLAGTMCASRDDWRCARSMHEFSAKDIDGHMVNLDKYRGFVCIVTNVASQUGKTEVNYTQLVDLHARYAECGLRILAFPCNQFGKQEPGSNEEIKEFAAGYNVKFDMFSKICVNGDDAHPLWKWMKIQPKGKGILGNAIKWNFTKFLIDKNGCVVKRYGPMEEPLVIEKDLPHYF
How it was run: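 Steps: GPX4 plus compound, 30 min RT; add GR/GSH/NADPH master mix; start with cumene hydroperoxide; read 340/450 nm fluorescence at 0 and 15 min. Finals were 200 nM GPX4, 1 mM GSH, 0.5 mM CHP, 0.5 mM NADPH, 100 nM GR.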

[15] = target: Cytochrome P450 2C9 (Homo sapiens) (UniProt P11712); experiment: Cytochrome P450 family 2 subfamily C member 9 (CYP2C9) small molecule antagonists: luciferase biochemical (cell-free) qHTS assay (AID 1645842; active = well fitted curve in the direction sought with a large enough effect in the repeat runs; inconclusive = weak or mixed curves; inactive = no such curve, though single readings can be large; an effect the other way counts as inactive or inconclusive; also: % is scaled to controls: 0 for no effect and ±100 for the full control effect; nearly all actives have a fitted effect of over 55% in size)
UniProt P11712, sequence (P11712 whole entry, looked up): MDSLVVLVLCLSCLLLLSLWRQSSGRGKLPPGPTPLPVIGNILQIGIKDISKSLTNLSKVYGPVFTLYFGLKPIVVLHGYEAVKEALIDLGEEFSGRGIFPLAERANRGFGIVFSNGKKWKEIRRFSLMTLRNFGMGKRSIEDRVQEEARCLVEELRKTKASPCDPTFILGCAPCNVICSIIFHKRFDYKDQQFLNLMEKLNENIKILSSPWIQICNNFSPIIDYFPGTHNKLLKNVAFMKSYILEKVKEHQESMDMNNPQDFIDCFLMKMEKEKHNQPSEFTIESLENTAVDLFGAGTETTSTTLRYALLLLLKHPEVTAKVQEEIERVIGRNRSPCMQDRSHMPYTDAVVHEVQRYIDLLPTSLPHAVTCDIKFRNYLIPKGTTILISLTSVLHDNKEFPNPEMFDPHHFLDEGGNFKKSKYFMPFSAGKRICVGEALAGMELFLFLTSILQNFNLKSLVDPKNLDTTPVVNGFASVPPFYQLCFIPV
How it was run: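 P450-Glo CYP2C9 system: proluciferin substrate with enzyme in mix containing 0.4% BSA, 10 min at room temperature, then NADPH regeneration solution added and incubated 1 h at 37C. Detection reagent stopped reaction; luminescence read after 20 min as RLU.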

UISO = experiment: qHTS assay to identify novel small-molecules to repurpose for Merkel cell carcinoma treatment (AID 1296009); settings: MCC and control cell lines, CellTiter-Glo viability, 72 h; activity change, negative = cytotoxicity: at 46 µM (top of the series); also: nearly all actives have a fitted effect of over 60% in size; also: potency is read from the fitted curve at half-maximal effect
How it was run: as §3
Tags tell the direction and shape of the fitted curve.

COc1c(C)c2c(c(O)c1C/C=C(\C)CC/C=C(\C)CCC(=O)O)C(=O)OC2
inconclusive: Potency [1] 28.2 µM [inhibitor, single point]

CC(C)CCNC(=O)[C@H](CC(C)C)NC(=O)[C@H]1O[C@@H]1C(=O)O
inconclusive: Potency (JEG-3) 39.8 µM [cytotoxic, single point]

CCOC(=O)c1c(N)sc2c1CCN(Cc1ccccc1)C2
active: Potency [6] 17.4 µM | Potency [11] 11.2 µM | Potency (MKL-2) 3.76 µM | Potency (WaGa) 21.1 µM
inconclusive: Potency [2] 26.6 µM [cytotoxic, single point] | Potency [3] 33.5 µM [cytotoxic, single point] | Potency [4] 21.9 µM [cytotoxic, partial curve, poor fit] | Potency [5] 17.2 µM [cytotoxic, single point] | Potency [8] 21.1 µM [cytotoxic, partial curve, poor fit]
inactive: Potency [7] | Potency [9] | Potency [10]

COc1cc(N)c(Cl)cc1C(=O)NC1CCN(CCCOc2ccc(F)cc2)CC1OC (centres undefined)
active: Potency [11] 5.62 µM
inconclusive: Potency [2] 26.6 µM [cytotoxic, single point] | activity change, negative = cytotoxic [3] -34.6% [cytotoxic] | Potency [5] 7.7 µM [cytotoxic, partial curve] | Potency [6] 21.9 µM [cytotoxic, single point] | Potency [8] 23.7 µM [cytotoxic, partial curve, poor fit] | Potency [10] 12.6 µM [inhibitor, partial curve] | Potency (MKL-2) 21.1 µM [inhibitor, partial curve, poor fit]
inactive: Potency [12]

Cc1ccc(CN2CCNCC2)cc1NC(=O)CNc1ccc(F)c(F)c1
inconclusive: Potency [7] 2.96 µM [cytotoxic, partial curve] | Potency [13] 13.7 µM [cytotoxic, partial curve] | Potency [9] 9.35 µM [cytotoxic, partial curve]
active: Potency [5] 19.2 µM
inactive: Potency (MKL-1) | Potency (WaGa)

CCCNc1ccc2ncc(-c3ccc4[nH]ncc4c3)n2n1
inconclusive: Potency [14] 8.06 µM [inhibitor, partial curve] | Potency (JEG-3) 2.51 µM [cytotoxic, full curve]

C[C@@]12CCC[C@H]1[C@@H]1CC[C@H]3C[C@@H](O)CC[C@]3(C)[C@H]1CC2
inactive: Potency [7] | Potency (JEG-3) | Potency (MKL-1)
inconclusive: Potency [2] 21.1 µM [cytotoxic, single point] | Potency [12] 15 µM [cytotoxic, partial curve] | Potency [6] 30.9 µM [cytotoxic, single point] | Potency [13] 21.9 µM [cytotoxic, partial curve, poor fit]

N#CCC(=O)NN
inactive: Potency [3] | Potency [7] | Potency [13] | Potency [8] | Potency [15] | Potency (MKL-1) | Potency (WaGa)

NC(=O)[C@@H]1CSSCCC(=O)N[C@@H](CCCCN=C(N)N)C(=O)NCC(=O)N[C@@H](CC(=O)O)C(=O)N[C@@H](Cc2c[nH]c3ccccc23)C(=O)N2CCC[C@H]2C(=O)N1 ([Mpa][hArg]GDWPC-NH2; disulfide 1-7)
inactive: Potency [9] | Potency [14] | Potency (UISO)

CC(O)/C=C/C1(O)C2(C)COC1(C)CC(O)C2 (centres undefined)
inconclusive: Potency (JEG-3) 25.1 µM [cytotoxic, single point]

CC(C)N1[N]C(=C2C=c3cc(O)ccc3=N2)c2c(N)ncnc21
inconclusive: Potency (MKL-2) 7.43 µM [inhibitor, partial curve, poor fit]
active: Potency [4] 0.344 µM | Potency [5] 19.2 µM | Potency [6] 0.485 µM | Potency [9] 1.05 µM | Potency (UISO) 0.833 µM | Potency (WaGa) 5.9 µM

CC(=O)O[C@]1(C(C)=O)CC[C@H]2[C@@H]3C=C(Cl)C4=CC(=O)CC[C@]4(C)[C@H]3CC[C@@]21C
inactive: Potency [10]
inconclusive: Potency [3] 33.5 µM [cytotoxic, single point] | Potency [4] 24.6 µM [cytotoxic, single point] | Potency [6] 24.6 µM [cytotoxic, partial curve] | Potency [13] 21.9 µM [cytotoxic, single point] | Potency [8] 26.6 µM [cytotoxic, single point] | Potency [9] 29.9 µM [cytotoxic, partial curve, poor fit] | Potency (MKL-2) 33.5 µM [inhibitor, single point]
